# Data published in PubChem BioAssay (Tox21).
# This list was built around the results that the source calls inconclusive (neither active nor inactive); the mix of calls is not that of the screen. For some of these results: Where the call is inconclusive, the potency comes from a doubtful curve fit. Activity calls are given as the source filed them. Unless noted, calls come from the whole dose curve; as a rule, active = well fitted curve in the direction sought with a large enough effect in the repeat runs; inconclusive = weak or mixed curves; inactive = no such curve, though single readings can be large; an effect the other way counts as inactive or inconclusive.
# How the values were obtained:
# [1] = biological target: Estrogen receptor beta (Homo sapiens) (UniProt Q92731); experiment: qHTS assay to identify small molecule agonists of the estrogen receptor beta (ER-beta) signaling pathway (AID 1259377; active = well fitted activation curve with a large enough effect in the signal ratio in the repeat runs, not every such curve was filed as active; inconclusive = weak or mixed curves, or effect the other way; the % refers to the signal ratio; note: potency is the fitted concentration of half-maximal effect; for activation: % is set by controls: 0 for no effect and ±100 for the full control effect); conditions: ER-beta-UAS-bla HEK293T, beta-lactamase FRET ratio, 16 h; activation: at 92.4 µM (top of the series) unless noted
# Method in brief: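 Read-out: beta-lactamase FRET fluorescence. Cell line: ER-beta-UAS-bla HEK293T in 2% charcoal-stripped FBS. Exposure: 16 hr at 37C. Substrate step: 2 h at room temperature.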
# [2] = biological target: Progesterone receptor (Homo sapiens) (UniProt P06401); experiment: qHTS assay to identify small molecule antagonists of the progesterone receptor (PR) signaling pathway (AID 1346795; active = well fitted inhibition curve with a large enough effect in the signal ratio in the repeat runs, not every such curve was filed as active; inconclusive = weak or mixed curves; the % refers to the signal ratio; note: potency is the fitted concentration of half-maximal effect; for activity change, negative = inhibition: % is set by controls: 0 for no effect and ±100 for the full control effect); conditions: PR-UAS-bla HEK293T, beta-lactamase FRET ratio, 16 h; activity change, negative = inhibition: at 92.4 µM (top of the series) unless noted
# Method in brief: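 In HEK293T cells bearing the PR-UAS-bla reporter, compound effects on promegestone-driven (1 nM) beta-lactamase expression are assessed after 16 hr using a fluorescent FRET substrate incubated 2 hr at room temperature.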
# [3] = qHTS assay to identify small molecule antagonists of the progesterone receptor (PR) signaling pathway - cell viability counter screen (AID 1346798); note: nearly all actives have a fitted effect of over 50% in size; note: potency is the fitted concentration of half-maximal effect
# Method in brief: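 Following a 4 hr attachment, PR-UAS-bla HEK293T cells in charcoal-stripped FBS medium were exposed to compounds with R5020 for 16 hr; CellTiter-Glo was added and luminescence read after 30 min at room temperature.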
# [4] = qHTS assay to identify small molecule antagonists of the TGF-beta/Smad signaling pathway - cell viability counter screen (AID 1346824); note: % is set by controls: 0 for no effect and ±100 for the full control effect; nearly all actives have a fitted effect of over 50% in size
# Method in brief: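 SBE-bla HEK 293T cells were plated overnight at 37 C, then given compounds in DMSO plus TGF-beta1 (added as 0.25 ng/mL solution) for 5 hr. After the bla read, CellTiter-Glo was added to the same wells and luminescence read after 30 min at room temperature.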
# [5] = qHTS assay to identify small molecule antagonists of the estrogen receptor beta (ER-beta) signaling pathway - cell viability counter screen (AID 1259382); note: % is set by controls: 0 for no effect and ±100 for the full control effect; nearly all actives have a fitted effect of over 55% in size
# Method in brief: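 Tox21 10K library tested in qHTS format on ER-beta-bla HEK293T cells stimulated with 1nM E2; 16 hr treatment at 37C. Same-well CellTiter-Glo luminescence served as the cell viability measure.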
# [6] = biological target: Thyrotropin receptor (Homo sapiens) (UniProt P16473); experiment: qHTS assay to identify small molecule antagonists of the thyroid stimulating hormone receptor (TSHR) signaling pathway (AID 1259385; calls by dose curve; note: nearly all actives have a fitted effect of over 20% in size; note: potency is the fitted concentration of half-maximal effect); conditions: TSHR-HEK293 cAMP HTRF, TSH-stimulated antagonist mode; activity change, negative = inhibition: at 92.4 µM (top of the series) unless noted
# Method in brief: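 TSHR-HEK293 cells were plated and held 18 h at 37C/5% CO2, then given compound plus Ro20-1724 and stimulated with TSH at 1.5 ng/mL final. After 30 min at room temperature, cAMP was detected with cAMP-d2/anti-cAMP-cryptate (1 h) by fluorescence.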
# [7] = qHTS assay to identify small molecule agonists of the estrogen receptor alpha (ER-alpha) signaling pathway in the presence of an antagonist - cell viability counter screen (AID 1259386);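 note: cells exposed to compounds for 22 h at 37 °C before the viability read; % is set by controls: 0 for no effect and ±100 for the full control effect; nearly all actives have a fitted effect of over 30% in size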
# Method in brief: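 Fluorescent CellTiter-Fluor viability signal from VM7Luc4E2 cells, with the reagent added during the final hour of a 22hr compound exposure at 37C in the presence of 10.0nM ICI-182,780.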
# [8] = qHTS assay to identify small molecule agonists of the progesterone receptor (PR) signaling pathway - cell viability counter screen (AID 1346799; calls by dose curve; note: potency is the fitted concentration of half-maximal effect; nearly all actives have a fitted effect of over 45% in size)
# Method in brief: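 Here, 3,000 PR-UAS-bla HEK293T cells per well were treated with compounds for 16 hr after a 6 hr preincubation at 37C and 5% CO2; cell viability is the CellTiter-Glo luminescence signal.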
# [9] = qHTS assay to identify small molecule agonists or antagonists of the thyroid stimulating hormone receptor (TSHR) signaling pathway - wild type cell line counter screen (AID 1259384; calls by dose curve; note: % is set by controls: 0 for no effect and ±100 for the full control effect); conditions: HEK293 wild type, cAMP HTRF counter-screen; cAMP activity change: at 92.4 µM (top of the series), active compounds read high unless noted
# Method in brief: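 Wild-type HEK293 cells were plated 18 h at 37 C/5% CO2, pin-dosed with compound plus Ro20-1724 medium, held 30 min at room temperature, then given cAMP-d2 and anti-cAMP-cryptate; fluorescence was read after 1 h. Fifteen concentrations, triplicate.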
# [10] = biological target: Progesterone receptor (Homo sapiens) (UniProt P06401); experiment: qHTS assay to identify small molecule agonists of the progesterone receptor (PR) signaling pathway (AID 1346784; calls by dose curve; note: % is set by controls: 0 for no effect and ±100 for the full control effect; nearly all actives have a fitted effect of over 30% in size); conditions: PR-UAS-bla HEK293T, beta-lactamase FRET ratio, 16 h; activation: at 92.4 µM (top of the series) unless noted
# Method in brief: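 Compounds were tested for PR agonism in HEK 293T cells bearing a beta-lactamase gene under UAS control. Treatment lasted 16 hr at 37C; signal came from fluorescence of a FRET substrate.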
# [11] = qHTS assay to identify small molecule agonists of the estrogen receptor beta (ER-beta) signaling pathway - cell viability counter screen (AID 1259380); note: potency is the fitted concentration of half-maximal effect; nearly all actives have a fitted effect of over 30% in size
# Method in brief: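 Viability of ER-beta-UAS-bla HEK293T cells was determined by CellTiter-Glo luminescence following 16 hr treatment with test compounds at 37C.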
# [12] = biological target: Estrogen receptor beta (Homo sapiens) (UniProt Q92731); experiment: qHTS assay to identify small molecule antagonists of the estrogen receptor beta (ER-beta) signaling pathway (AID 1259378; active = well fitted inhibition curve with a large enough effect in the signal ratio in the repeat runs, not every such curve was filed as active; inconclusive = weak or mixed curves, or effect the other way; inactive = no such curve, though single readings can be large or run the other way; the % refers to the signal ratio; note: % is set by controls: 0 for no effect and ±100 for the full control effect); conditions: ER-beta-UAS-bla HEK293T, beta-lactamase FRET ratio, 16 h; activity, negative = inhibition: at 92.4 µM (top of the series) unless noted
# Method in brief: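 ER-beta-UAS-bla HEK293T (GripTite) cells in 2% charcoal-stripped FBS medium were preincubated 6 hr at 37C, dosed with compound, then stimulated with 1 nM E2 (final) for 16 hr; beta-lactamase reporter read by B/G FRET fluorescence after 2 hr substrate loading.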
# Tags give direction and shape of the fitted curve or compound fluorescence and quenching.
# Sequence of UniProt Q92731 (Q92731 whole entry, looked up): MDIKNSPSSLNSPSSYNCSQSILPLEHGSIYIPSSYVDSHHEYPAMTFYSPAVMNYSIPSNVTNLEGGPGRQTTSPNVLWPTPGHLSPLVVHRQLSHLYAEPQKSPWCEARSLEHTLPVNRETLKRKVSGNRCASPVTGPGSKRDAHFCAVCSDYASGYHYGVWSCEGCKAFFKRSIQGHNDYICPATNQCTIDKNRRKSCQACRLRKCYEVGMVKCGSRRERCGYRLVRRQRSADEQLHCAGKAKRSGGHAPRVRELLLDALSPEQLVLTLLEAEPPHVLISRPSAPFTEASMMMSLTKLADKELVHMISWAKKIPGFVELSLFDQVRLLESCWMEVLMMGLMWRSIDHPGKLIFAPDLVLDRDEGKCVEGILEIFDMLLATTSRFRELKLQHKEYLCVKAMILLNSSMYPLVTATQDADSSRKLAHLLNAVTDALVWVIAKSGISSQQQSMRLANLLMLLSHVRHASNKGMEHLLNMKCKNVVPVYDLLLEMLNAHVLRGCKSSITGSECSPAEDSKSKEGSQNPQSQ
# Sequence of UniProt P06401 (P06401 whole entry, looked up): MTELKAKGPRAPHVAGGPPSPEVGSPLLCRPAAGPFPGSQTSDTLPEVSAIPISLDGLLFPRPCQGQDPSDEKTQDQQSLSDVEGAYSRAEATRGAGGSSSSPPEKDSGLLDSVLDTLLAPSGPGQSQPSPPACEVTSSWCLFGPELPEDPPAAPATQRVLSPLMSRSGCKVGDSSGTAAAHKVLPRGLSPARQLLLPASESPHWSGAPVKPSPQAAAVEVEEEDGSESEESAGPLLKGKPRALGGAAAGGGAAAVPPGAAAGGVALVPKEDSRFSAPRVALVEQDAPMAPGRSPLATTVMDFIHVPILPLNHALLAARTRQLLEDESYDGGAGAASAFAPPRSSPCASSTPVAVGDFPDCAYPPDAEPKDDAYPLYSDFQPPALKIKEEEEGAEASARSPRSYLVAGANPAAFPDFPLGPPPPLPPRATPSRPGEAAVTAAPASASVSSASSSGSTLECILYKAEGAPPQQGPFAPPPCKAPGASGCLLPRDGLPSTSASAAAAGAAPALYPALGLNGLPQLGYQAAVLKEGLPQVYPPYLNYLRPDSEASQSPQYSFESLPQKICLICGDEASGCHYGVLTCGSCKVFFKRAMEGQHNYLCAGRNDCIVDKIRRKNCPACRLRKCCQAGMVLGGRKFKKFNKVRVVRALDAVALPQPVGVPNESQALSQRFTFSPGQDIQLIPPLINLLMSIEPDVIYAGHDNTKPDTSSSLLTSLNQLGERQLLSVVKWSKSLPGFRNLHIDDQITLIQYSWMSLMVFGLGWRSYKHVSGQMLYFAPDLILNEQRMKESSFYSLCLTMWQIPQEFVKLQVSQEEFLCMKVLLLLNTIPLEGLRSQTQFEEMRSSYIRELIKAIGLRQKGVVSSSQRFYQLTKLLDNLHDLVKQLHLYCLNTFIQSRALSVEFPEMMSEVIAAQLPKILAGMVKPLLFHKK
# Sequence of UniProt P16473 (P16473 whole entry, looked up): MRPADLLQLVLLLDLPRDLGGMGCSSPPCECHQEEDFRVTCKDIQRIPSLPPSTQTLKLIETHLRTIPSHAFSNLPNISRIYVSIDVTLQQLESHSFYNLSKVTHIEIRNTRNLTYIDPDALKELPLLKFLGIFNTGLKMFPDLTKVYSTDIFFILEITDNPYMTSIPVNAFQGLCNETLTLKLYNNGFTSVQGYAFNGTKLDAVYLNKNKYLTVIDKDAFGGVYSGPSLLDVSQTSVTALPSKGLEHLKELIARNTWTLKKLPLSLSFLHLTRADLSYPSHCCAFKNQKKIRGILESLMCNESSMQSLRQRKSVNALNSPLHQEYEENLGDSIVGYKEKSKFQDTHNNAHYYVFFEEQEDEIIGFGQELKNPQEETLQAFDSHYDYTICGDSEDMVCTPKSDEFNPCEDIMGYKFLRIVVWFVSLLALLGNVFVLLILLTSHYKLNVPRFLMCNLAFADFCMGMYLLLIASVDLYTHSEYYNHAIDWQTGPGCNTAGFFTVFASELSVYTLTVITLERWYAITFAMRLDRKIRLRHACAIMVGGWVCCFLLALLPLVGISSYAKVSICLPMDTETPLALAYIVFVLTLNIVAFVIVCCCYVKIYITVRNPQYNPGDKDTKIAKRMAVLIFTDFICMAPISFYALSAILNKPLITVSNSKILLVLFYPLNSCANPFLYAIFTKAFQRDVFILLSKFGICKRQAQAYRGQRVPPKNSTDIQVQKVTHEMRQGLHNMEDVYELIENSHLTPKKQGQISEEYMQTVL
smiles,measurement,setting,value
Cc1c(C(=O)NCCO)[n+](=O)c2ccccc2n1[O-],Potency,[1],inactive
same,Potency,[2],inactive
same,Potency,[3],inactive
same,Potency,[4],inactive
CC1=C(O)C(=O)C(C)O1 (centres undefined),activation,[1],inconclusive: 7.3%
same,Potency,[5],inactive
Cc1cccc2c1ccc1ccccc12,activation,[1],inconclusive: 8.19%
same,Potency,[2],inconclusive: 54.5 µM
Cc1cc(=O)oc2cc(O[C@@H]3SC[C@@H](O)[C@H](O)[C@H]3O)ccc12,Potency,[1],inactive
same,Potency,[6],inactive
same,Potency,[7],inactive
CC(C)(C#N)c1cc(Cn2cncn2)cc(C(C)(C)C#N)c1,activation,[1],inconclusive: 11% [at 42.5 µM]
same,Potency,[3],"inconclusive: 8.39 µM [cytotoxic, single point]"
same,Potency,[8],"inconclusive: 16.8 µM [cytotoxic, full curve, poor fit]"
CCCCCCC(=O)OCC,activation,[1],inconclusive: 13.2%
same,Potency,[2],inactive
CN(C)CCCOc1nn(Cc2ccccc2)c2ccccc12,Potency,[1],"inconclusive: 13.3 µM [activator, single point]"
same,Potency,[2],"inconclusive: 33.5 µM [falling, partial curve]"
same,Potency,[3],"inconclusive: 0.531 µM [cytotoxic, full curve]"
same,Potency,[4],inactive
CCOC(=O)c1ccc(N(C)C)cc1,Potency,[1],"inconclusive: 17.2 µM [activator, full curve, poor fit]"
same,cAMP activity change,[9],inconclusive: -5.03%
same,Potency,[6],"inconclusive: 48.6 µM [falling, partial curve, poor fit]"
Cc1c(I)c(=O)n(-c2ccccc2)n1C,activation,[1],inconclusive: 5.53% [at 42.5 µM]
same,Potency,[10],inactive
CCC(C)=O,Potency,[1],inactive
same,activation,[10],inconclusive: 0.205%
same,Potency,[2],"inconclusive: 24.1 µM [falling, full curve, poor fit]"
S=C([S-])NCCNC(=S)[S-].[Mn+2],Potency,[1],inactive
same,Potency,[11],"inconclusive: 3.06 µM [rising, partial curve]"
same,"activity change, negative = inhibition",[2],inconclusive: -26.3%
same,Potency,[3],"inconclusive: 17.2 µM [rising, partial curve]"
same,Potency,[8],"inconclusive: 3.86 µM [rising, full curve]"
O=C(O)c1cccc(Cl)c1Cl,Potency,[12],inactive
